From patent US20260250410A1, “ANTIBODY AND USE THEREOF” (SICHUAN HUIYU PHARMACEUTICAL CO., LTD., priority 2022, published 2026)

Assays:
Assay type in all cases: cell-based, human
MDA-MB-231 cells [1] = experiment: Endocytosis capacity of murine monoclonal antibody (flow cytometry internalization); conditions: antibody 1.5 μg/mL; for Internalization MDA-MB-231 (%) 0.5 h: MDA-MB-231, 0.5 h at 37° C.; for Internalization MDA-MB-231 (%) 1 h: MDA-MB-231, 1 h at 37° C.; for Internalization MDA-MB-231 (%) 2 h: MDA-MB-231, 2 h at 37° C.
Experimental: (§1) The endocytosis capacity of the antibody was detected for 0.5 to 2 hours. MDA-MB-231 and PC3 cells were subjected to digestion with 5 mM EDTA, and plated at 4×10^4 cells/well after cell counting. After adding an Fc blocker (Human TruStain FcX™, Biolegend, 422302) and blocking at room temperature for 10 mins, a test antibody (1.5 μg/mL) was added, and the mixture was incubated at 4° C. for 30 mins, centrifuged, and washed twice with PBS+2% FBS, then the cells were divided into four equal portions (labeled as 0 h, 0.5 h, 1 h, 2 h), cells labeled as 0.5 h, 1 h, 2 h time points were added to a cell culture medium at 200 µL/well, and cultured at 37° C. for 0.5 h, 1 h, 2 h, respectively. Cells at 0 h point were centrifuged to remove supernatant, a secondary antibody (PE anti-human IgG Fc Antibody, Biolegend, 410708) was added, and the mixture was incubated at 4° C. for 30 mins, centrifuged, and washed twice with PBS+2% FBS, and detection was performed using a flow cytometer. After incubation of cells labeled as 0.5 h, 1 h, and 2 h points at 37° C. was completed, a secondary antibody was added (in the same steps as those at 0 h point), Geo-MFI of the signal under the same voltage was collected as detection signal at 0 h, and antibody internalization rate was calculated according to the following equation: Internalization (%)=(Geo-MFI (0 h)-Geo-MFI (0.5, 1, 2 h))/Geo-MFI (0 h)×100%.

PC3 cells = experiment: as above; conditions: antibody 1.5 μg/mL; for Internalization PC3 (%) 0.5 h: PC3, 0.5 h at 37° C.; for Internalization PC3 (%) 1 h: PC3, 1 h at 37° C.; for Internalization PC3 (%) 2 h: PC3, 2 h at 37° C.
Experimental: as §1

MDA-MB-231 cells [2] = experiment: Transwell tumor cell migration experiment; conditions: MDA-MB-231, antibody 10 μg/ml
Experimental: In order to determine the effect of antibodies on tumor cell metastasis, the migration ability of tumor cells was examined in this study according to a transwell experiment. The specific cell migration experiment involved culturing and collecting MDA-MB-231 cells, washing them once with PBS, adjusting the density to 8×10^5 cells/mL, adding the antibody to be tested to the cells such that the working concentration thereof was 10 μg/ml, co-incubating for 30 mins, adding a cell suspension to the upper chamber of the transwell chamber, placing the transwell chamber in the incubator for 12-48 h, then removing the chamber (transwell chamber, to examine cell migration ability), immobilizing the cells, staining the cells with crystal violet for 15 mins, washing, air drying, mounting, and taking photos of 4-5 fields of view under a microscope, and counting the number or area of the stained cells using imageJ analysis software, the number or area was used as the basis for determining tumor cell migration.

PC-3 cells = experiment: Effect of antibody on tumor cell proliferation (CellTiter-Glo); conditions: PC-3, 96 h
Experimental: (§2) 3000 cells (breast cancer MDA-MB-231, prostate cancer PC-3 cells)/well were plated onto 96-well plates overnight, an antibody at a final concentration of 500 nM to 0.00128 nM (100 nM to 0.000256 nM, 100, 20, 4, 0.8, 0.16, 0.032, 0.0064, 0.00128, 0.000256 nM, respectively) was added; after a 5-fold dilution across 9 concentration points and culturing in a CO2 incubator at 37° C. for 96 h, half of the medium (100 μL) was discarded, and 100 μL of CellTiter-Glo Luminescent Cell Viability assay reagent (Promega, cat #G7570) was added to detect signal values on a BMG microplate reader. The inhibition of antibody on tumor cell growth was calculated by graphpad fitting based on the signal value and antibody concentration.

MDA-MB-231 cells [3] = experiment: as above; conditions: MDA-MB-231, 96 h
Experimental: as §2

Row | Molecule | Internalization MDA-MB-231 (%) 0.5 h (MDA-MB-231 cells [1]) | Internalization MDA-MB-231 (%) 1 h (MDA-MB-231 cells [1]) | Internalization MDA-MB-231 (%) 2 h (MDA-MB-231 cells [1]) | Internalization PC3 (%) 0.5 h (PC3 cells) | Internalization PC3 (%) 1 h (PC3 cells) | Internalization PC3 (%) 2 h (PC3 cells) | effect on tumor cell migration (transwell, FIG. 4c) (MDA-MB-231 cells [2]) | effect on tumor cell growth (FIG. 4b) (PC-3 cells) | effect on tumor cell growth (FIG. 4a) (MDA-MB-231 cells [3])
1 | 5B8: anti-CDCP1 murine monoclonal antibody (hybridoma); VH SEQ ID NO: 252, VL SEQ ID NO: 302 (antibody, V domains shown, 5B8 heavy chain variable region; 5B8 light chain variable region) VH: EVQLKESGGGLVQPGGSLRISCATSGLTFTHYHMSWVRQPPGKAPEWLAIIRNKAYGYTTDYSASVRGRFTISRDDSQSILYLQMNTLRAEDSATYYCVREGGYGYDGTFAYWGQGTTVTVSS VL: EIVLTQSPASLAVSLGQRATISCRASESVDNYGISFMSWFQQKPGQPPKLLIYAASNQGSGVPDRFSGSGSGTDFSLNIHPMEEDDTAMYFCQQSKEVPRTFGGGTKLEIK | 24.06% | 32.99% | 50.21% | 28.18% | 40.11% | 54.90% | better capability to inhibit tumor cell migration than SEQ135 | did not exhibit an effect on tumor cell growth | did not exhibit an effect on tumor cell growth
2 | 4B7: anti-CDCP1 murine monoclonal antibody (hybridoma); VH SEQ ID NO: 253, VL SEQ ID NO: 303 (antibody, V domains shown, 4B7 heavy chain variable region; 4B7 light chain variable region) VH: EVQLQQSGGGLVQPGGSLRLSCATSGLTFTYYHMSWVRQPPGKAPEWLAIIRNKAYGYTTEYSASVKGRFTISRDDSQSILYLQMNTLRTEDSATYYCAREGGYGYDGTFAYWGQGTTVTVSS VL: DVVMTQTPASLAVSLGQRATIS[left out - about 80 residues]FGGGTKLEIK | 18.01% | 27.41% | 48.49% | 14.05% | 31.25% | 49.70% |  |  | 
3 | 27D11: anti-CDCP1 murine monoclonal antibody (hybridoma); VH SEQ ID NO: 247, VL SEQ ID NO: 298 (antibody, V domains shown, 27D11 heavy chain variable region; 27D11 light chain variable region) VH: EVTLKESGPGLVKPSQSLSLTCSVTGYSITSGYYWNWIRQFPGNKLDWMGYITYDDSHYYNPSLKHRLSITRDTSKNQFFLKLNSVTAEDTATYFCARGNYYANYPHAMDYWGQGTTVTVSS VL: DIVMTQSPASLAVSLGQRATISCRASESVDNSGISFMNWFQQKPGQPPKLLIYAASNQGSGVPARFSGSGSRTDFSLSIHPMEEDDTAMYFCQQNKEVPWTFGGGTKLEIK | 76.41% | 82.73% | 89.16% | 76.08% | 83.52% | 88.25% |  |  | 
4 | 20G4: anti-CDCP1 murine monoclonal antibody (hybridoma); VH SEQ ID NO: 246, VL SEQ ID NO: 297 (antibody, V domains shown, 20G4 heavy chain variable region; 20G4 light chain variable region) VH: EVQLKESGPGLVKPSQSLSLTCSVTGYSITSGYYWNWIRQFPGNKLDWMGYITYDDSHYYNPSLKDRLSITRDTSKNQFFLKLNSVTAEDTATYFCARGNYYANYPHAMDYWGQGTTVTVSS VL: EIVITQSPASLAVSLGQRASISCRASESVDHNGISFMNWFQQKPGQPPKLLIYAASNQGSGVPARFSGSGSRTDFSLSIHPMEEDDTAIYFCQQNKEVPWTFGGGTKLEIK | 84.77% | 91.47% | 95.13% | 78.02% | 87.36% | 94.46% |  |  | 
5 | 19F7D6: anti-CDCP1 murine monoclonal antibody (hybridoma); VH SEQ ID NO: 250, VL SEQ ID NO: 300 (antibody, V domains shown, 19F7D6 heavy chain variable region; 19F7D6 light chain variable region) VH: EVKLVESGGGLVKPGGSLKLSCAASGFTFSTYTMSWVRQTPEKRLEWVATISSGGIYTYYPDSVKGRFTISRDNAKDTLYLQMSSLRSEDTAVYYCSSPHSYAISYGYFDYWGQGTTVTVSS VL: DIVMTQSPLTLSITIGQPASISCRSSQSLLDIDGKTYLNWLLQRPGQSPKRLIYLVSELDSGVPDRFTGSGSGTDFTLKISGVEAEDLGIYYCWQGTHFPYTFGGGTKLEIK |  |  | 63.32% |  |  | 64.51% |  | did not exhibit an effect on tumor cell growth | did not exhibit an effect on tumor cell growth
6 | 27A3: anti-CDCP1 murine monoclonal antibody (hybridoma); VH SEQ ID NO: 259, VL SEQ ID NO: 309 (antibody, V domains shown, 27A3 heavy chain variable region; 27A3 light chain variable region) VH: EVQLKESGPELKKPGETVKISCKASGYTFTYYSMHWVKQTPGKGLKWMGWINTETGEPTYADDFKGRFAFSLETSDSTAYLQINNLKNEDTATYFCANAMDYWGQGTTVTVSS VL: DIVMTQTPLTLSVTIGQPASISCKSSQSLLDSDGKTYLNWLLQRPGQSPKRLIYLVSKLDSGVPDRFTGSGSGTDFTLKISRVEAEDLGVYYCWQGTHFPHTFGGGTKLEIK | 93.40% | 90.57% | 98.74% | 90.84% | 94.04% | 96.12% |  |  | 
7 | 3B12H9: anti-CDCP1 murine monoclonal antibody (hybridoma); VH SEQ ID NO: 239, VL SEQ ID NO: 289 (antibody, V domains shown, 3B12H9/3B12H5 heavy chain variable region; 3B12H9 light chain variable region) VH: EVQLQQSGTVLARPGASVKMSCKASGYSFTIYWVHWVKQRPGQGLEWIGAVYPGNDDTSYNQNFKGKAKLTAVTSATTAYMELSSLTIDDSAVYYCTRHTYDEVFDYWGQGTTVTVSS VL: EIVLTQSPLTLSVTIGQPASISCKSSQSLLDSDGKTYLNWLLQRPGQSPKRLIYLVSKLDSGVPDRFTGSGSGTDFTLKISRVEAEDLGVYYCWQGTHFPWTFGGGTKLEIK | 0.00% | 0.00% | 0.00% | 0.00% | 0.00% | 0.00% |  |  | 
